# Results published in the supplement of paper PMC8728848.
# This is one part of the list.
# B1: OGAN (protein)
# chain: MVQKESQATLEERESELSSNPAASAGASLEPPAAPAPGEDNPAGAGGAAVAGAAGGARRFLCGVVEGFYGRPWVMEQRKELFRRLQKWELNTYLYAPKDDYKHRMFWREMYSVEEAEQLMTLISAAREYEIEFIYAISPGLDITFSNPKEVSTLKRKLDQVSQFGCRSFALLFNDIDHNMCAADKEVFSSFAHAQVSITNEIYQYLGEPETFLFCPTEYCGTFCYPNVSQSPYLRTVGEKLLPGIEVLWTGPKVVSKEIPVESIEEVSKIIKRAPVIWDNIHANDYDQKRLFLGPYKGRSTELIPRLKGVLTNPNCEFEANYVAIHTLATWYKSNMNGVRKDVVMTDSEDSTVSIQIKLENEGSDEDIETDVLYSPQMALKLALTEWLQEFGVPHQY
# Key:
# Experiment in all cases: glycan array binding signal (z-score within array); higher = stronger binding
# Conditions in all cases: glycan notation: IUPAC condensed, linker removed
# [1] = molecular target: Gal(b1-4)GlcNAc(b1-3)Gal(b1-4)GlcNAc(b1-6)[Gal(b1-3)]GalNAc
# Method in brief: (§1)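 Columns mapping to the same glycan were averaged after glycan names were converted to IUPAC-condensed notation. The data come from 3228 arrays in the Consortium for Functional Glycomics database, limited to those with an available protein sequence. Binding is reported as a within-array Z-score averaged across arrays of one protein sequence and across linkers.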
# [2] = molecular target: Gal(b1-4)GlcNAc(b1-3)Gal(b1-4)[Fuc(a1-3)]GlcNAc(b1-3)Gal(b1-4)[Fuc(a1-3)]GlcNAc
# Method in brief: as §1
# [3] = molecular target: Gal(b1-4)GlcNAc(b1-3)GalNAc
# Method in brief: as §1
# [4] = molecular target: Gal(b1-4)GlcNAc(b1-3)[Fuc(a1-3)GlcNAc(b1-6)]Gal(b1-4)Glc
# Method in brief: as §1
# [5] = molecular target: Gal(b1-4)GlcNAc(b1-3)[Gal(b1-4)GlcNAc(b1-6)]Gal(b1-4)GlcNAc
# Method in brief: as §1
# [6] = molecular target: Gal(b1-4)GlcNAc(b1-3)[GlcNAc(b1-6)]Gal(b1-4)GlcNAc
# Method in brief: as §1
# [7] = molecular target: Gal(b1-4)GlcNAc(b1-6)Gal(b1-4)GlcNAc
# Method in brief: as §1
# [8] = molecular target: Gal(b1-4)GlcNAc(b1-6)GalNAc
# Method in brief: as §1
# [9] = molecular target: Gal(b1-4)GlcNAc(b1-6)[Gal(b1-3)]GalNAc
# Method in brief: as §1
# [10] = molecular target: Gal(b1-4)GlcNAc(b1-6)[Gal(b1-4)GlcNAc(b1-3)]GalNAc
# Method in brief: as §1
# [11] = molecular target: Gal(b1-4)GlcNAc6P
# Method in brief: as §1
# [12] = molecular target: Gal(b1-6)Gal
# Method in brief: as §1
# [13] = molecular target: Gal3S(b1-3)GalNAc
# Method in brief: as §1
# [14] = molecular target: Gal3S(b1-3)GlcNAc
# Method in brief: as §1
# [15] = molecular target: Gal3S(b1-3)[Fuc(a1-4)]GlcNAc
# Method in brief: as §1
# [16] = molecular target: Gal3S(b1-4)Glc
# Method in brief: as §1
# [17] = molecular target: Gal3S(b1-4)Glc6S
# Method in brief: as §1
# [18] = molecular target: Gal3S(b1-4)GlcNAc
# Method in brief: as §1
# [19] = molecular target: Gal3S(b1-4)[Fuc(a1-3)]Glc6S
# Method in brief: as §1
# [20] = molecular target: Gal3S(b1-4)[Fuc(a1-3)]GlcNAc
# Method in brief: as §1
# [21] = molecular target: Gal3S(b1-4)[Fuc(a1-3)]GlcNAc6S
# Method in brief: as §1
# [22] = molecular target: Gal3S4S(b1-4)GlcNAc
# Method in brief: as §1
# [23] = molecular target: Gal3S6S(b1-4)GlcNAc
# Method in brief: as §1
# [24] = molecular target: Gal3S6S(b1-4)GlcNAc6S
# Method in brief: as §1
# [25] = molecular target: Gal4S(b1-4)GlcNAc
# Method in brief: as §1
# [26] = molecular target: Gal4S6S(b1-4)GlcNAc
# Method in brief: as §1
# [27] = molecular target: Gal6P(b1-4)GlcNAc
# Method in brief: as §1
# [28] = molecular target: Gal6S(b1-3)GlcNAc
# Method in brief: as §1
# [29] = molecular target: Gal6S(b1-3)GlcNAc6S
# Method in brief: as §1
# [30] = molecular target: Gal6S(b1-4)Glc
# Method in brief: as §1
# [31] = molecular target: Gal6S(b1-4)Glc6S
# Method in brief: as §1
# [32] = molecular target: Gal6S(b1-4)GlcNAc
# Method in brief: as §1
# [33] = molecular target: Gal6S(b1-4)GlcNAc6S
# Method in brief: as §1
# [34] = molecular target: GalNAc(a1-3)Gal
# Method in brief: as §1
# [35] = molecular target: GalNAc(a1-3)GalNAc
# Method in brief: as §1
# [36] = molecular target: GalNAc(a1-3)GalNAc(b1-3)Gal(a1-4)Gal(b1-4)Glc
# Method in brief: as §1
# [37] = molecular target: GalNAc(a1-3)GalNAc(b1-3)Gal(a1-4)Gal(b1-4)GlcNAc
# Method in brief: as §1
binder,measurement,setting,value
B1,glycan array binding signal (z-score),[1],-0.048
same,glycan array binding signal (z-score),[2],-0.056
same,glycan array binding signal (z-score),[3],-0.068
same,glycan array binding signal (z-score),[4],-0.056
same,glycan array binding signal (z-score),[5],-0.03
same,glycan array binding signal (z-score),[6],-0.059
same,glycan array binding signal (z-score),[7],-0.064
same,glycan array binding signal (z-score),[8],-0.053
same,glycan array binding signal (z-score),[9],-0.055
same,glycan array binding signal (z-score),[10],-0.074
same,glycan array binding signal (z-score),[11],-0.092
same,glycan array binding signal (z-score),[12],-0.036
same,glycan array binding signal (z-score),[13],-0.091
same,glycan array binding signal (z-score),[14],-0.032
same,glycan array binding signal (z-score),[15],0.008
same,glycan array binding signal (z-score),[16],-0.039
same,glycan array binding signal (z-score),[17],-0.05
same,glycan array binding signal (z-score),[18],-0.067
same,glycan array binding signal (z-score),[19],0.034
same,glycan array binding signal (z-score),[20],-0.06
same,glycan array binding signal (z-score),[21],-0.046
same,glycan array binding signal (z-score),[22],-0.052
same,glycan array binding signal (z-score),[23],-0.035
same,glycan array binding signal (z-score),[24],-0.017
same,glycan array binding signal (z-score),[25],-0.099
same,glycan array binding signal (z-score),[26],-0.03
same,glycan array binding signal (z-score),[27],-0.033
same,glycan array binding signal (z-score),[28],0.014
same,glycan array binding signal (z-score),[29],-0.021
same,glycan array binding signal (z-score),[30],-0.069
same,glycan array binding signal (z-score),[31],-0.048
same,glycan array binding signal (z-score),[32],-0.057
same,glycan array binding signal (z-score),[33],-0.066
same,glycan array binding signal (z-score),[34],-0.051
same,glycan array binding signal (z-score),[35],-0.003
same,glycan array binding signal (z-score),[36],-0.085
same,glycan array binding signal (z-score),[37],-0.047
